The list shows a part of the results. At the low end of the ranking the order means little.

This test deals with T1, GST-Rok-C97-191 (UniProt O34857).
T1 sequence: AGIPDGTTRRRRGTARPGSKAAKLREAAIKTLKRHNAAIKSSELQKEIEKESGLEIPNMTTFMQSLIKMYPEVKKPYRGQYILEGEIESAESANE
Briefly: protein binding microarray.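 Further: rank score from −0.5 (least bound) to 0.5 (best bound).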 The settings on record: Rok is a gene silencer of Bacillus subtilis; high values mean tight binding; most listed sequences are background and not binding sites; double strand, one strand shown.
For CTCGCGAA, the binding signal is -0.0459 E-score. As to ACCCGTTA, the binding signal was 0.0795 E-score. The sequence GCCATTGA yielded a binding signal of -0.0503 E-score. Then CCTTCCAG, with -0.216 E-score; and AAGCCAGT, with -0.14 E-score. AGCTGTCG yielded a binding signal of -0.0124 E-score.

With ATGCATGC, the binding signal is -0.17 E-score. The sequence ATGGACGA showed a binding signal of -0.199 E-score.

As for ATCTGCCC, the binding signal was -0.428 E-score.

Take CAATTAGG: the binding signal is -0.0576 E-score. CGAGGATC displayed a binding signal of -0.174 E-score. Then ATCTACCA, with 0.469 E-score.

As to CGCTTCTC, the binding signal was -0.0348 E-score. GACAGCTA showed a binding signal of 0.0485 E-score. Then GACAATCA, with -0.051 E-score. Then AGGGGCAT, with -0.0734 E-score. Sequence AAGCATGG had a binding signal of -0.183 E-score. With CGTGTATA, the binding signal was 0.22 E-score. As for ACCACGGG, the binding signal was -0.148 E-score. As for CAGGTAAG, the binding signal was -0.108 E-score. TCTCCTCA registered a binding signal of -0.0627 E-score. AGCGTACC gave a binding signal of -0.188 E-score.

With ACCTCACG, the binding signal is -0.122 E-score. In turn, CCATATAA registered a binding signal of 0.176 E-score. Sequence GGTAGATA yielded a binding signal of 0.432 E-score. For AGGAGGTA, the binding signal stood at 0.0399 E-score. Regarding CCCCAGAG, the binding signal was -0.266 E-score.

Regarding TCAGTAAA, the binding signal is 0.135 E-score. Regarding CGATCGTA, the binding signal was found to be 0.263 E-score. In turn, CACCCACG yielded a binding signal of -0.0226 E-score. As to CGTAAACA, the binding signal was -0.123 E-score. The sequence ACGAGGAG gave a binding signal of -0.292 E-score. ACTTACTC yielded a binding signal of -0.0158 E-score. As to CCTGATAC, the binding signal was -0.0177 E-score. CAGTCTAG returned a binding signal of -0.0271 E-score. As to CTCGATAA, the binding signal was 0.048 E-score. Then CAATCATA, with 0.184 E-score.

As for GATCGAGC, the binding signal is 0.0223 E-score. AACGGAAC: the binding signal is 0.0175 E-score. In the case of ACTCCGAC, the binding signal was -0.0322 E-score.

In turn, AAGGTGAT had a binding signal of 0.118 E-score. As for AGTACCCC, the binding signal was -0.211 E-score. On to ACTGTAGA, for which the binding signal was determined as 0.261 E-score. Then CGGATGGC, with -0.347 E-score; and AACTGGGT, with -0.131 E-score; and AATGTAGC, with 0.144 E-score. Consider GGGTGCGA, for which the binding signal is -0.157 E-score.

Regarding AAAAACAA, the binding signal was 0.151 E-score. As to CTCAGACA, the binding signal is -0.187 E-score.

CAGAGGGG yielded a binding signal of -0.298 E-score.

Regarding CAAGGAAC, the binding signal is -0.0696 E-score. Then AATCTAGG, with 0.171 E-score; and CTCCGAAA, with 0.0585 E-score.

As to GAATGCTC, the binding signal is -0.14 E-score. As for CCACACAG, the binding signal is -0.172 E-score.

Sequence ACAGCAAT gave a binding signal of 0.0454 E-score. Sequence TCATGAGA returned a binding signal of 0.0167 E-score. Sequence AATAACAA yielded a binding signal of 0.189 E-score. Then ACATGTCA, with -0.0154 E-score. For ATACTCAC, the binding signal stood at 0.158 E-score. ATCTTCTG showed a binding signal of 0.0126 E-score. Then CGCGGTCA, with -0.218 E-score; and GTACTTCA, with 0.233 E-score; and TCGTGACA, with -0.133 E-score.

For the sequence ACGCCGCT, the binding signal was -0.0905 E-score. Then GGTCATTA, with -0.103 E-score. Then CAACTATG, with 0.142 E-score; and ACTGCGCA, with -0.154 E-score; and CCTACATC, with 0.187 E-score. As to GACTTCGC, the binding signal is -0.205 E-score. On to ATCAGACC, for which the binding signal was determined as 0.0209 E-score. Then AGAATGGA, with -0.0266 E-score. With CGCGCGGC, the binding signal is -0.339 E-score. Then CACGAACC, with -0.0036 E-score; and ACTCGGTG, with 0.0735 E-score. With CAGCGTGC, the binding signal was -0.242 E-score. For the sequence GGTGAATA, the binding signal was -0.0913 E-score. Then CAGGCGAA, with -0.198 E-score. Then ACGCTACT, with 0.209 E-score. Turning to AAGGAACG, the binding signal was -0.244 E-score. TGCCCCAA came in with a binding signal of -0.241 E-score. Then CCCTCAAC, with 0.0398 E-score.

Sequence CGGTCTTA registered a binding signal of 0.0367 E-score. In turn, ATTCTCTA displayed a binding signal of 0.21 E-score. The sequence TCGAATAA had a binding signal of 0.0824 E-score. Then GATCCATA, with -0.0337 E-score; and ATAGTGTG, with 0.0365 E-score.

In turn, AGAAGTAA registered a binding signal of 0.231 E-score. Take ACATGCGG: the binding signal was 0.0405 E-score. Consider TAAAACAA, for which the binding signal was determined as 0.0349 E-score.

In the case of AACCGGCG, the binding signal is -0.12 E-score.

In turn, CACATCCG yielded a binding signal of 0.00313 E-score.

In turn, GGAATAAC displayed a binding signal of -0.0244 E-score. Take CCCGAACC: the binding signal was -0.146 E-score. As for GGTTAGTA, the binding signal was 0.00825 E-score. Sequence GAATCGGA had a binding signal of -0.078 E-score.

In turn, GGAGGGAC returned a binding signal of -0.279 E-score. In turn, CGAAATAG showed a binding signal of 0.0431 E-score. The sequence ACCAAGAC registered a binding signal of -0.0137 E-score.

As for ACAGGTCG, the binding signal was -0.236 E-score. Then CCCCCCGA, with -0.38 E-score; and CCGGAAGC, with -0.279 E-score. Sequence AATTATAC had a binding signal of 0.348 E-score.

In the case of TAATCACA, the binding signal is 0.0445 E-score.

GAGCAGAA came in with a binding signal of -0.173 E-score. Then CACGTTTC, with 0.00548 E-score; and CGGATGTA, with 0.148 E-score; and TCTTCCAA, with -0.255 E-score. Then GCTCTTAA, with -0.131 E-score. Then CCGTGGAG, with -0.0132 E-score; and TAACGTAA, with -0.0712 E-score; and ATTTATAC, with 0.348 E-score.

In turn, ACAGTTGA gave a binding signal of 0.152 E-score. For ATCGGGAC, the binding signal is -0.126 E-score. As to CACGGACA, the binding signal was -0.294 E-score. With GACCGAGA, the binding signal is -0.169 E-score. The sequence AGTACGAT registered a binding signal of 0.149 E-score. Sequence ATAGTTTA registered a binding signal of 0.354 E-score.

AAATGGTG came in with a binding signal of -0.075 E-score.

Sequence CCACTGCA showed a binding signal of -0.174 E-score. As for ACTCCATC, the binding signal is -0.0741 E-score. With AGGCTCGC, the binding signal is -0.3 E-score. As to ATCGATTA, the binding signal was 0.0142 E-score.

CTACGCGC gave a binding signal of -0.0725 E-score.

Sequence ACCCAGCG gave a binding signal of -0.164 E-score. Then ATTTATGG, with 0.174 E-score; and ACTAAACA, with 0.11 E-score; and ACGCGCCT, with -0.21 E-score. In the case of GACGCACA, the binding signal was -0.354 E-score. In the case of CGTGCGCC, the binding signal is -0.362 E-score. ATAGTGGG: the binding signal amounted to 0.129 E-score. Then CGCGGCCA, with -0.406 E-score. AGCTCGTA registered a binding signal of 0.00298 E-score. In turn, ATAGGCCG returned a binding signal of -0.0602 E-score. GCGACGGA showed a binding signal of -0.261 E-score. For the sequence CCACAGGA, the binding signal was -0.0505 E-score.

CCAAGCTA displayed a binding signal of 0.0958 E-score. As to CGCCGTCA, the binding signal is -0.0373 E-score. For the sequence AGTACGGG, the binding signal was -0.0188 E-score. ACCTTGTG registered a binding signal of 0.0568 E-score. GTTGAGTA: the binding signal is 0.00502 E-score. Consider CCTAGGCC, for which the binding signal was -0.204 E-score.

AACATAAG: the binding signal is 0.194 E-score. As for ACAGGGCG, the binding signal is -0.271 E-score. For CCGGCCAC, the binding signal is -0.268 E-score. Then AGAGGATA, with -0.0217 E-score; and CTCATGAG, with -0.141 E-score. AGGCTCCC showed a binding signal of -0.281 E-score. Then ACTGCTAG, with 0.105 E-score. Then CAACGCAG, with -0.0345 E-score. ACGGTCCC yielded a binding signal of -0.309 E-score. Turning to AACGCACT, the binding signal was found to be 0.151 E-score. AGGTGGAA showed a binding signal of -0.0991 E-score. In the case of AGCCTCCC, the binding signal was -0.266 E-score. Then AAGTTCGG, with -0.118 E-score.

Turning to ACTGAGCA, the binding signal is -0.11 E-score. In turn, CGCTAGTC returned a binding signal of -0.137 E-score. For the sequence ATACCATG, the binding signal came out at 0.202 E-score.

AAATTTAG: the binding signal came out at 0.242 E-score. As to ACATAAAG, the binding signal was -0.111 E-score. For AATGGTTC, the binding signal was -0.0214 E-score. Then CTACACCA, with 0.0773 E-score; and ATGCTTGG, with 0.0526 E-score; and CACAGAAA, with 0.162 E-score. As to GAGAGGCA, the binding signal is -0.235 E-score. Then GCTGCCGA, with -0.236 E-score; and CTGCGTCA, with -0.204 E-score. Take AGCGTTCC: the binding signal is -0.026 E-score. Take GAGTTGAA: the binding signal was -0.0634 E-score.

For CCCACAGG, the binding signal is -0.104 E-score. Turning to ACTCAGGC, the binding signal is -0.123 E-score. The sequence ATTTTTGG gave a binding signal of 0.166 E-score.

(Values after PMC6212790.)
